Results on five molecules are retold here after paper PMC11667815.

These are yes or no findings as the source states them, for the method shown. In cells and extracts the contact can be indirect. Some binding calls cover weakened binding; strength is not graded here. Sequences can lack the tags named with a protein.

T1: 3×Flag-BID 1-195 (UniProt P55957)
T1 sequence: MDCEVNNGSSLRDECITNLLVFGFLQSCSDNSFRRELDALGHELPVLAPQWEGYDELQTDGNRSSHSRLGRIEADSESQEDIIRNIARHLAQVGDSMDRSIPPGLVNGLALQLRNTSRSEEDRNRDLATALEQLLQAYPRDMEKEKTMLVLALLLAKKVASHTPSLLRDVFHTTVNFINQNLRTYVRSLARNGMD

B1: Casp4-HA 102-289 C258A (p22) (domain or fragment, UniProt P49662 102-289)
chain: STDALKLCPHEEFLRLCKERAEEIYPIKERNNRTRLALIICNTEFDHLPPRNGADFDITGMKELLEGLDYSVDVEENLTARDMESALRAFATRPEHKSSDSTFLVLMSHGILEGICGTVHDEKKPDVLLYDTIFQIFNNRNCLSLKDKPKVIIVQAARGANRGELWVRDSPASLEVASSQSSENLEED
B2: Casp4 p33/p10 form (complex, UniProt P49662 1-289; P49662 290-377)
chain 1: MAEGNHRKKPLKVLESLGKDFLTGVLDNLVEQNVLNWKEEEKKKYYDAKTEDKVRVMADSMQEKQRMAGQMLLQTFFNIDQISPNKKAHPNMEAGPPESGESTDALKLCPHEEFLRLCKERAEEIYPIKERNNRTRLALIICNTEFDHLPPRNGADFDITGMKELLEGLDYSVDVEENLTARDMESALRAFATRPEHKSSDSTFLVLMSHGILEGICGTVHDEKKPDVLLYDTIFQIFNNRNCLSLKDKPKVIIVQAARGANRGELWVRDSPASLEVASSQSSENLEED
chain 2: AVYKTHVEKDFIAFCSSTPHNVSWRDSTMGSIFITQLITCFQKYSWCCHLEEVFRKVQQSFETPRAKAQMPTIERLSMTRYFYLFPGN
B3: Casp4-HA 1-289 C258A (p33) (domain or fragment, UniProt P49662 1-289)
chain: MAEGNHRKKPLKVLESLGKDFLTGVLDNLVEQNVLNWKEEEKKKYYDAKTEDKVRVMADSMQEKQRMAGQMLLQTFFNIDQISPNKKAHPNMEAGPPESGESTDALKLCPHEEFLRLCKERAEEIYPIKERNNRTRLALIICNTEFDHLPPRNGADFDITGMKELLEGLDYSVDVEENLTARDMESALRAFATRPEHKSSDSTFLVLMSHGILEGICGTVHDEKKPDVLLYDTIFQIFNNRNCLSLKDKPKVIIVQAARGANRGELWVRDSPASLEVASSQSSENLEED
B4: Casp4 p22/p10 form (complex, UniProt P49662 102-289; P49662 290-377)
chain 1: STDALKLCPHEEFLRLCKERAEEIYPIKERNNRTRLALIICNTEFDHLPPRNGADFDITGMKELLEGLDYSVDVEENLTARDMESALRAFATRPEHKSSDSTFLVLMSHGILEGICGTVHDEKKPDVLLYDTIFQIFNNRNCLSLKDKPKVIIVQAARGANRGELWVRDSPASLEVASSQSSENLEED
chain 2: AVYKTHVEKDFIAFCSSTPHNVSWRDSTMGSIFITQLITCFQKYSWCCHLEEVFRKVQQSFETPRAKAQMPTIERLSMTRYFYLFPGN
B5: Casp4-HA 1-377 C258A (FL) (enzyme, UniProt P49662 1-377)
chain: MAEGNHRKKPLKVLESLGKDFLTGVLDNLVEQNVLNWKEEEKKKYYDAKTEDKVRVMADSMQEKQRMAGQMLLQTFFNIDQISPNKKAHPNMEAGPPESGESTDALKLCPHEEFLRLCKERAEEIYPIKERNNRTRLALIICNTEFDHLPPRNGADFDITGMKELLEGLDYSVDVEENLTARDMESALRAFATRPEHKSSDSTFLVLMSHGILEGICGTVHDEKKPDVLLYDTIFQIFNNRNCLSLKDKPKVIIVQAARGANRGELWVRDSPASLEVASSQSSENLEEDAVYKTHVEKDFIAFCSSTPHNVSWRDSTMGSIFITQLITCFQKYSWCCHLEEVFRKVQQSFETPRAKAQMPTIERLSMTRYFYLFPGN

For this assay, the target named is T1, 3×Flag-BID 1-195. Description: co-IP; HEK293T cells transfected with the indicated plasmids for 24 h; lysates (2000 μg protein) incubated with anti-Flag magnetic beads overnight at 4°C, washed 3 times with lysis buffer; immunoblotted with antibodies against Flag or HA. (Immunoblotting shows a protein as a band on a membrane.)
As for B1, the binding entry is “no binding”.
In the case of B2 it was “binds”.
Then B3, with “no binding”; and B4, with “no binding”; and B5, with “no binding”.
